# Experimental data: the antibiotic and cytotoxicity screens of Wong et al. (2023)
# The other results are listed elsewhere or left out.
# How the values were obtained:
# HSkMC = human skeletal muscle cells; assay: cytotoxicity call (relative viability < 0.9); details: 10 µM
# HepG2 = assay: cytotoxicity call (relative viability < 0.9); details: 10 µM
# S. aureus RN4220 = assay: growth inhibition call (relative growth <= 0.2); details: 50 µM
Structure (SMILES),cytotoxicity call (HSkMC),cytotoxicity call (HepG2),growth inhibition call (S. aureus RN4220)
C[C@@H]1CN([C@H](C)CO)C(=O)c2cc(NC(=O)Nc3ccc(C(F)(F)F)cc3)ccc2O[C@H]1CN(C)CC1CCCCC1,inactive,active,inactive
CN(C)CC(=O)N[C@@H]1CC[C@H](CC(=O)O)O[C@H]1CO,inactive,inactive,inactive
C[C@@H]1CN([C@H](C)CO)C(=O)c2cc(NS(=O)(=O)c3cccs3)ccc2O[C@@H](C)CCCCO[C@@H]1CN(C)C(=O)NC1CCCCC1,inactive,active,inactive
C[C@H]1[C@H]([Si](C)(C)F)[C@@H](CCO)O[C@]12C(=O)N(Cc1cccc(N(C=O)c3ccccc3)c1)c1ccccc12,inactive,inactive,inactive
CC(C)NC(=O)Nc1ccc2c(c1)C(=O)N([C@H](C)CO)C[C@H](C)[C@@H](CN(C)S(C)(=O)=O)OCCCC[C@H](C)O2,inactive,inactive,inactive
C[C@H]1CN([C@@H](C)CO)S(=O)(=O)c2ccc(Br)cc2O[C@H]1CN(C)C(=O)c1ccccc1F,inactive,inactive,inactive
Cc1noc(C)c1NC(=O)N(C)C[C@@H]1Oc2c(NC(=O)c3ccc(-c4nccs4)cc3)cccc2C(=O)N([C@H](C)CO)C[C@H]1C,inactive,inactive,inactive
Cc1noc(C)c1NC(=O)N(C)C[C@@H]1OCCCC[C@H](C)Oc2ccc(NC(=O)Nc3ccc(C(F)(F)F)cc3)cc2C(=O)N([C@@H](C)CO)C[C@@H]1C,inactive,active,inactive
C[C@@H]1CN([C@H](C)CO)C(=O)c2cc(NC(=O)Cc3cn(C)c4ccccc34)ccc2O[C@@H]1CN(C)C(=O)Nc1ccc(C(F)(F)F)cc1,inactive,inactive,inactive
C[C@@H]1CN([C@@H](C)CO)C(=O)c2cc(NS(=O)(=O)c3ccc(Cl)cc3)ccc2O[C@H]1CN(C)Cc1ccc(Oc2ccccc2)cc1,inactive,inactive,inactive
Cc1ccc(S(=O)(=O)Nc2ccc3c(c2)CC(=O)N([C@@H](C)CO)C[C@H](C)[C@H](CN(C)S(=O)(=O)c2c(C)noc2C)O3)cc1,inactive,inactive,inactive
C[C@H]1CN([C@@H](C)CO)C(=O)c2cc(C#Cc3ccccc3)cnc2O[C@@H]1CN(C)S(=O)(=O)c1ccccc1F,inactive,inactive,inactive
C[C@H](CO)N1C[C@H](C)[C@H](CN(C)Cc2ccccc2)OCCCC[C@H](C)Oc2ccc(NC(=O)c3ccncc3)cc2C1=O,inactive,inactive,inactive
C/C=C/c1ccc2c(c1)O[C@@H](CN(C)Cc1ccc(C(=O)O)cc1)[C@@H](C)CN([C@@H](C)CO)S2(=O)=O,inactive,inactive,inactive
O=C(C[C@H]1C[C@@H]2c3cc(NS(=O)(=O)c4ccc(F)cc4)ccc3O[C@@H]2[C@H](CO)O1)NC1CCCCC1,inactive,inactive,inactive
O=C(C[C@@H]1C[C@@H]2c3cc(NC(=O)C4CCOCC4)ccc3O[C@@H]2[C@@H](CO)O1)NCc1ccc2c(c1)OCO2,inactive,inactive,inactive
CCc1cnc2c(c1OC)c(=O)n(CCN1CCOCC1)c(=O)n2C,inactive,inactive,inactive
C=CC(C1=CC(=O)C(OC)=CC1=O)c1ccc(OC)cc1 (stereo not given),inactive,active,inactive
COC(=O)c1cc(S(=O)(=O)N2CCOCC2)cn1C,inactive,inactive,inactive
Cc1ccc(S[C@]2(C(=O)NCC(F)(F)F)CC(=O)N(Cc3ccccc3Cl)[C@@H]2c2ccc(CO)cc2I)cc1,inactive,inactive,inactive
COc1cccc(NC(=O)N[C@@H]2C=C[C@H](CC(=O)N3CCOCC3)O[C@H]2CO)c1,inactive,inactive,inactive
C[C@H](CO)N1C[C@H](C)[C@@H](CN(C)Cc2ccc(C(=O)Nc3ccccc3N)cc2)Oc2ccc(NC(=O)Cn3cnnn3)cc2C1=O,inactive,inactive,inactive
C[C@@H]1CCCCO[C@H](CN(C)S(=O)(=O)c2cn(C)cn2)[C@@H](C)CN([C@@H](C)CO)C(=O)c2cc(NS(=O)(=O)c3ccccc3)ccc2O1,inactive,inactive,inactive
COC(CNC(=O)C(=O)NC[C@H]1OCCN1C(=O)c1ccc2c(c1)OCO2)OC,inactive,inactive,inactive
C[C@H]1CCCCO[C@@H](CN(C)C(=O)c2ccncc2)[C@@H](C)CN([C@@H](C)CO)C(=O)c2cc(NC(=O)NC3CCCCC3)ccc2O1,inactive,inactive,inactive
